System: Caco-2 cell monolayer
Details: for Differential metabolite TSA vs. DS: significantly accumulated in TSA; for ER (efflux ratio, Papp(BL→AP)/Papp(AP→BL)) / Papp (AP→BL) / Papp (BL→AP): constituent of DS 100 μg/mL, 180 min; for Papp (AP→BL) / Papp (BL→AP): from UPLC-ESI-MS/MS peak areas
[1] = VIP ≥ 1, p < 0.05, fold change >2.0 or < 0.5

## O=c1cc(-c2ccccc2)oc2cc(O)cc(O)c12 [chrysin]
[1]
  Differential metabolite TSA vs. DS: upregulated

## O=C(O)/C=C/c1ccc(O)c(O)c1 [caffeic acid]
[1]
  Differential metabolite TSA vs. DS: upregulated

## O=c1cc(-c2ccc(O)c(O[C@@H]3O[C@H](CO)[C@@H](O)[C@H](O)[C@H]3O)c2)oc2cc(O)cc(O)c12 [Luteolin-3′-O-glucoside]
  ER (efflux ratio, Papp(BL→AP)/Papp(AP→BL)): 6.27
  Papp (AP→BL): 0.71 10^−6 cm/s
  Papp (BL→AP): 4.45 10^−6 cm/s

## O=C(O)CCc1ccc(O)cc1
[1]
  Differential metabolite TSA vs. DS: upregulated

## Nortrachelogenin-4-O-glucoside
  ER (efflux ratio, Papp(BL→AP)/Papp(AP→BL)): 5.93
  Papp (AP→BL): 0.59 10^−6 cm/s
  Papp (BL→AP): 3.50 10^−6 cm/s

## COc1c(O)c([C@@H]2O[C@H](CO)[C@@H](O)[C@H](O)[C@H]2O)c2oc(-c3ccc(O)cc3)cc(=O)c2c1O [Hispidulin-8-C-glucoside]
  ER (efflux ratio, Papp(BL→AP)/Papp(AP→BL)): 0.16

## O=c1c(O[C@@H]2O[C@H](CO)[C@H](O)[C@H](O)[C@H]2O)c(-c2cc(O)c(O)c(O)c2)oc2cc(O)cc(O)c12 [Myricetin-3-O-galactoside]
  ER (efflux ratio, Papp(BL→AP)/Papp(AP→BL)): 2.63
  Papp (AP→BL): 6.79 10^−6 cm/s
  Papp (BL→AP): 17.86 10^−6 cm/s

## COc1cc(-c2cc(=O)c3c(O)cc(O[C@@H]4O[C@H](CO)[C@@H](O)[C@H](O)[C@H]4O)cc3o2)cc(OC)c1O [Tricin-7-O-glucoside]
  ER (efflux ratio, Papp(BL→AP)/Papp(AP→BL)): 2.98
  Papp (AP→BL): 5.13 10^−6 cm/s
  Papp (BL→AP): 15.30 10^−6 cm/s

## O=c1c(O)c(-c2ccc(O)c(O)c2)oc2cc(O[C@@H]3O[C@H](CO)[C@@H](O)[C@H](O)[C@H]3O)c(O)c(O)c12 [Quercetagitrin]
  ER (efflux ratio, Papp(BL→AP)/Papp(AP→BL)): 2.28
  Papp (AP→BL): 7.17 10^−6 cm/s
  Papp (BL→AP): 16.33 10^−6 cm/s

## COc1cc(OC)c2c(=O)c(OC)c(-c3ccc(OC)c(OC)c3)oc2c1 [3,5,7,3′4′-Pentamethoxyflavone]
  ER (efflux ratio, Papp(BL→AP)/Papp(AP→BL)): 5.26
  Papp (AP→BL): 5.19 10^−6 cm/s
  Papp (BL→AP): 27.30 10^−6 cm/s

## COc1ccc(-c2coc3cc(O[C@@H]4O[C@H](CO)[C@@H](O)[C@H](O)[C@H]4O)c(OC)c(O)c3c2=O)cc1O [Iristectorin A]
  ER (efflux ratio, Papp(BL→AP)/Papp(AP→BL)): 5.31
  Papp (AP→BL): 2.06 10^−6 cm/s
  Papp (BL→AP): 10.94 10^−6 cm/s

## CC(=O)OCC1=C[C@@H]2OC(=O)C3=CO[C@@H](O[C@@H]4O[C@H](CO)[C@@H](O)[C@H](O)[C@H]4O)[C@H]1[C@@H]32 [asperuloside]
[1]
  Differential metabolite TSA vs. DS: upregulated

## COc1ccccc1C(=O)O [O-anisic acid]
[1]
  Differential metabolite TSA vs. DS: upregulated
  ER (efflux ratio, Papp(BL→AP)/Papp(AP→BL)): 5.92

## COc1cc(-c2cc(=O)c3c(O)cc(O)cc3o2)cc(OC)c1O[C@@H]1O[C@H](CO)[C@@H](O)[C@H](O)[C@H]1O [Tricin-4′-O-glucoside]
  ER (efflux ratio, Papp(BL→AP)/Papp(AP→BL)): 6.17
  Papp (AP→BL): 3.11 10^−6 cm/s
  Papp (BL→AP): 19.19 10^−6 cm/s

## COc1cc(-c2cc(=O)c3c(O[C@@H]4O[C@H](CO)[C@@H](O)[C@H](O)[C@H]4O)cc(O)cc3o2)cc(O)c1O [3′-O-Methyltricetin-5-O-glucoside]
  ER (efflux ratio, Papp(BL→AP)/Papp(AP→BL)): 2.31
  Papp (AP→BL): 6.18 10^−6 cm/s
  Papp (BL→AP): 14.27 10^−6 cm/s

## O=c1c(O)c(-c2ccccc2)oc2cc(O[C@@H]3O[C@H](CO)[C@@H](O)[C@H](O)[C@H]3O)cc(O)c12 [Galangin-7-O-glucoside]
  ER (efflux ratio, Papp(BL→AP)/Papp(AP→BL)): 4.87
  Papp (AP→BL): 2.62 10^−6 cm/s
  Papp (BL→AP): 12.75 10^−6 cm/s

## O=C(O)C(O)Cc1ccc(O)cc1 (stereo not drawn) [4-Hydroxyphenyllactic acid]
  ER (efflux ratio, Papp(BL→AP)/Papp(AP→BL)): 0.32
  Papp (AP→BL): 62.54 10^−6 cm/s
  Papp (BL→AP): 19.92 10^−6 cm/s

## O=c1c(-c2ccc(O)cc2)coc2cc(O[C@@H]3O[C@H](CO)[C@H](O)[C@H](O)[C@H]3O)cc(O)c12 [Genistein-7-O-galactoside]
  ER (efflux ratio, Papp(BL→AP)/Papp(AP→BL)): 4.22
  Papp (AP→BL): 2.87 10^−6 cm/s
  Papp (BL→AP): 12.10 10^−6 cm/s

## O=c1cc(-c2ccc(O[C@@H]3O[C@H](CO)[C@@H](O)[C@H](O)[C@H]3O)cc2)oc2cc(O)cc(O)c12 [Apigenin-4′-O-glucoside]
  ER (efflux ratio, Papp(BL→AP)/Papp(AP→BL)): 5.76
  Papp (AP→BL): 1.45 10^−6 cm/s
  Papp (BL→AP): 8.35 10^−6 cm/s

## O=c1cc(-c2ccc(O)cc2)oc2c(C3OCC(O)C(O)C3O)c(O)cc(O)c12 (stereo not drawn) [Apigenin-8-C-arabinoside]
  ER (efflux ratio, Papp(BL→AP)/Papp(AP→BL)): 6.04
  Papp (AP→BL): 1.85 10^−6 cm/s
  Papp (BL→AP): 11.17 10^−6 cm/s

## COc1c(O)cc2oc(-c3ccc(O)c(O)c3)c(O[C@@H]3O[C@H](CO[C@@H]4O[C@@H](C)[C@H](O)[C@@H](O)[C@H]4O)[C@@H](O)[C@H](O)[C@H]3O)c(=O)c2c1O [Patuletin-3-O-rutinoside]
  ER (efflux ratio, Papp(BL→AP)/Papp(AP→BL)): 6.69
  Papp (AP→BL): 0.67 10^−6 cm/s
  Papp (BL→AP): 4.48 10^−6 cm/s

## C[C@@H]1O[C@@H](c2c(O)c([C@@H]3O[C@H](CO)[C@@H](O)[C@H](O)[C@H]3O)c(O)c3c(=O)cc(-c4ccc(O)cc4)oc23)[C@H](O)[C@H](O)[C@H]1O [Violanthin]
  ER (efflux ratio, Papp(BL→AP)/Papp(AP→BL)): 0.16
  Papp (AP→BL): 3.29 10^−6 cm/s
  Papp (BL→AP): 0.53 10^−6 cm/s

## O=c1c(O[C@@H]2O[C@H](CO)[C@@H](O)[C@H](O)[C@H]2O)c(-c2cc(O)c(O)c(O)c2)oc2cc(O)cc(O)c12 [Myricetin-3-O-β-D-glucoside]
  ER (efflux ratio, Papp(BL→AP)/Papp(AP→BL)): 2.36
  Papp (AP→BL): 7.02 10^−6 cm/s
  Papp (BL→AP): 16.60 10^−6 cm/s

## COc1cc2oc(-c3ccc(O)c(O)c3)cc(=O)c2c(O)c1O[C@@H]1O[C@H](CO)[C@@H](O)[C@H](O)[C@H]1O [Pedaliin]
  ER (efflux ratio, Papp(BL→AP)/Papp(AP→BL)): 2.18
  Papp (AP→BL): 6.37 10^−6 cm/s
  Papp (BL→AP): 13.90 10^−6 cm/s

## COc1cc(O)cc([C@H]2OC[C@H](Cc3ccc(O)c(OC)c3)[C@@H]2CO)c1 [(7′S,8R,8′R)-3,5′-Dimethoxy-3′,4,9′-trihydroxy-7′,9-epoxy-8,8′-lignan]
  ER (efflux ratio, Papp(BL→AP)/Papp(AP→BL)): 5.36
  Papp (AP→BL): 2.54 10^−6 cm/s
  Papp (BL→AP): 13.61 10^−6 cm/s

## COc1cc(-c2cc(=O)c3c(O)c(OC)c(O[C@@H]4O[C@H](CO)[C@@H](O)[C@H](O)[C@H]4O)cc3o2)ccc1O [Jaceosidin-7-O-glucoside]
[1]
  Differential metabolite TSA vs. TSB: upregulated
  ER (efflux ratio, Papp(BL→AP)/Papp(AP→BL)): 7.33
  Papp (AP→BL): 1.99 10^−6 cm/s
  Papp (BL→AP): 14.59 10^−6 cm/s

## COc1cc(O[C@@H]2O[C@H](CO)[C@@H](O)[C@H](O)[C@H]2O)c2c(c1)O[C@H](c1ccc(OC)c(O)c1)CC2=O [Persicoside]
  ER (efflux ratio, Papp(BL→AP)/Papp(AP→BL)): 3.75
  Papp (AP→BL): 3.04 10^−6 cm/s
  Papp (BL→AP): 11.41 10^−6 cm/s

## O=c1c(O)c(-c2ccc(O[C@@H]3O[C@H](CO)[C@@H](O)[C@H](O)[C@H]3O)cc2)oc2cc(O)cc(O)c12 [Kaempferol-4′-O-glucoside]
  ER (efflux ratio, Papp(BL→AP)/Papp(AP→BL)): 0.18
  Papp (AP→BL): 1.81 10^−6 cm/s
  Papp (BL→AP): 0.33 10^−6 cm/s

## COc1c(O)cc2oc(-c3ccc(O)cc3)c(O[C@@H]3O[C@H](CO)[C@@H](O)[C@H](O)[C@H]3O)c(=O)c2c1O [6-Methoxykaempferol-3-O-glucoside]
  ER (efflux ratio, Papp(BL→AP)/Papp(AP→BL)): 2.40
  Papp (AP→BL): 5.96 10^−6 cm/s
  Papp (BL→AP): 14.28 10^−6 cm/s

## COc1ccc(-c2cc(=O)c3c(O)cc(O[C@@H]4O[C@H](C(=O)O)[C@@H](O)[C@H](O)[C@H]4O)cc3o2)cc1O [Diosmetin-7-O-glucuronide]
  ER (efflux ratio, Papp(BL→AP)/Papp(AP→BL)): 0.16

## O=C(c1ccc(O)cc1)c1c(O)cc(O)cc1O [Iriflophenone]
  ER (efflux ratio, Papp(BL→AP)/Papp(AP→BL)): 0.17
  Papp (AP→BL): 2.70 10^−6 cm/s
  Papp (BL→AP): 0.46 10^−6 cm/s

## Rosmarinic acid-3′-O-glucoside
  ER (efflux ratio, Papp(BL→AP)/Papp(AP→BL)): 0.14
  Papp (AP→BL): 3.35 10^−6 cm/s
  Papp (BL→AP): 0.48 10^−6 cm/s

## COc1c(O)cc(C2CC(=O)c3c(O)cc(O)cc3O2)cc1O[C@@H]1O[C@H](CO)[C@@H](O)[C@H](O)[C@H]1O (stereo partly drawn) [3′,5′,5,7-Tetrahydroxy-4′-methoxyflavanone-3′-O-glucoside]
  ER (efflux ratio, Papp(BL→AP)/Papp(AP→BL)): 2.54
  Papp (AP→BL): 5.84 10^−6 cm/s
  Papp (BL→AP): 14.85 10^−6 cm/s

## O=c1cc(-c2ccc(O)cc2)oc2cc(O[C@@H]3O[C@H](CO)[C@@H](O)[C@H](O)[C@H]3O)cc(O)c12 [Cosmosiin]
  ER (efflux ratio, Papp(BL→AP)/Papp(AP→BL)): 4.60
  Papp (AP→BL): 2.15 10^−6 cm/s
  Papp (BL→AP): 9.88 10^−6 cm/s

## O=C1C[C@@H](c2ccc(O)c(O)c2)Oc2cc(O[C@@H]3O[C@H](CO)[C@@H](O)[C@H](O)[C@H]3O)ccc21 [Butin-7-O-glucoside]
  ER (efflux ratio, Papp(BL→AP)/Papp(AP→BL)): 6.47
  Papp (AP→BL): 1.01 10^−6 cm/s
  Papp (BL→AP): 6.53 10^−6 cm/s

## Clausenaglycoside A
  ER (efflux ratio, Papp(BL→AP)/Papp(AP→BL)): 0.15
  Papp (AP→BL): 7.70 10^−6 cm/s
  Papp (BL→AP): 1.15 10^−6 cm/s

## COc1cc(-c2[o+]c3cc(O)cc(O)c3cc2O[C@@H]2O[C@H](CO)[C@@H](O)[C@H](O)[C@H]2O)cc(O)c1O [Petunidin-3-O-glucoside]
  ER (efflux ratio, Papp(BL→AP)/Papp(AP→BL)): 5.79
  Papp (AP→BL): 0.61 10^−6 cm/s
  Papp (BL→AP): 3.53 10^−6 cm/s

## COc1cc(C(=O)[C@H]2CO[C@H](c3cc(OC)c(O)c(OC)c3)[C@H]2CO)cc(OC)c1O [Ciwujiatone]
  ER (efflux ratio, Papp(BL→AP)/Papp(AP→BL)): 5.34
  Papp (AP→BL): 2.79 10^−6 cm/s
  Papp (BL→AP): 14.90 10^−6 cm/s

## Isotamarixin
  ER (efflux ratio, Papp(BL→AP)/Papp(AP→BL)): 2.07
  Papp (AP→BL): 6.93 10^−6 cm/s
  Papp (BL→AP): 14.32 10^−6 cm/s

## O=C(/C=C/c1ccc(O)cc1)OC[C@H]1O[C@@H](Oc2ccc(O)cc2)[C@H](O)[C@@H](O)[C@@H]1O [Robustaside A]
  ER (efflux ratio, Papp(BL→AP)/Papp(AP→BL)): 0.16
  Papp (AP→BL): 11.59 10^−6 cm/s
  Papp (BL→AP): 1.83 10^−6 cm/s

— paper PMC11833358 (Food Chemistry: X, 2025)
